In all, about 380,000 compounds went through this assay and about 25 (0.007%) were called active. The inconclusive results got no clear call from the source; some entries with a clear call stand among them for comparison. Calls come from the whole dose curve; as a rule, active = well fitted activation curve with a large enough effect; inconclusive = small, poorly fitted or top-dose-only effect; inactive = no such curve, though single readings can be large or run the other way. Potencies of inconclusive entries are left out as doubtful fits.
These compounds were tested against Glucagon-like peptide 1 receptor (Homo sapiens) (UniProt P43220) (assay: qHTS of GLP-1 Receptor Agonists). Details: HEK293 GLP-1R CRE-luciferase, luminescence, 4-6 h, cells express a hypersensitive GLP-1R form; activation: at 45.6 µM (top of the series) unless noted.
Potency is the fitted concentration of half-maximal effect; tags give direction and shape of the fitted curve.
Throughout, for activation: % of control where 0% means no effect.

Chain of UniProt P43220 (P43220 whole entry, looked up): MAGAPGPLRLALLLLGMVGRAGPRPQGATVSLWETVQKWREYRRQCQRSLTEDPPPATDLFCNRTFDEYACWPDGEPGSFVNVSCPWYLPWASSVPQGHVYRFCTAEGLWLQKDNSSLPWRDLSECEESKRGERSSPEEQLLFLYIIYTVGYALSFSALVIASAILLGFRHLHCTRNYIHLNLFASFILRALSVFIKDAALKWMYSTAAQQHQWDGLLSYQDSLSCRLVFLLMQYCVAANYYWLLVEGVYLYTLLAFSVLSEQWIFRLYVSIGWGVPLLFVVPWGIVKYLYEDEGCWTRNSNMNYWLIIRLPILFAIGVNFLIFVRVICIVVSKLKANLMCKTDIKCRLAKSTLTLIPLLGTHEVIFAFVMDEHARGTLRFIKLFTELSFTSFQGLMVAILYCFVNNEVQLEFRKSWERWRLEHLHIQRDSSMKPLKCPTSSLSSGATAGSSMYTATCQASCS

Compound | Potency | activation
Cc1ccc2nc(-c3ccc(SCC(=O)Nc4nnc(C)s4)nc3)[nH]c2c1 | inactive | 
OC(COc1ccccc1)CN1CCN(C(c2ccccc2)c2ccccc2)CC1 (centres undefined) | inactive | 
CCOC(=O)C1CCN(S(=O)(=O)c2ccc3c(c2)CC(C)N3C(=O)C2CCC2)CC1 (centres undefined) | inconclusive [activator, single point] | 
Cn1cncc1C#Cc1c(-c2ccsc2)sc2ccccc12 | inconclusive [activator, partial curve, poor fit] | 
CCOC(=O)C1=C(Nc2cccc(Cl)c2)OCC1=O | inconclusive [activator, partial curve, poor fit] | 
CC(C)(C)C(=O)NC1=NN(c2c(Cl)cc(Cl)cc2Cl)C(=O)C1 | inactive | 
O=C(CCCCCn1c(=S)[nH]c2ccc(N3CCOCC3)cc2c1=O)NCc1ccc(Cl)cc1 | inactive | 
CC(=O)CCc1ccc(OCCCOc2cccc3cccnc23)cc1 | inconclusive [activator, single point] | 
CN1CCN(CC/C=C2/c3ccccc3Sc3ccc(S(=O)(=O)N(C)C)cc32)CC1 | inconclusive [activator, partial curve, poor fit] | 
CCn1cc(C2=NC(C)CO2)c2ccccc21 (centres undefined) | inconclusive [activator, single point] | 
OC1(c2cccc(C(F)(F)F)c2)CCN(c2ncnc3c2[nH]c2ccc(F)cc23)CC1 | inactive | 
COc1ccc(CN(C)C(C)C(=O)Nc2cccc3ccccc23)cc1 (centres undefined) | inconclusive [activator, partial curve, poor fit] | 
CC(=O)c1sc(Nc2ccc3c(c2)OCO3)nc1C | inconclusive [activator, partial curve, poor fit] | 
Nc1nc(Cn2nnc(-c3ccccc3Cl)n2)nc(N2CCOCC2)n1 | inconclusive [activator, partial curve, poor fit] | 
CC1CCN(C(=S)c2cn(Cc3ccc(F)cc3)c3ccccc23)CC1 | inactive | 
CCOC(=O)c1nc(Nc2ccc(OC)cc2)c2ccccc2n1 | inconclusive [activator, single point] | 
COc1ccc(CNC(=S)N/N=C/c2ccc(O)c(OC)c2)cc1 | inactive | 
COc1ccccc1NC(=O)C(C)OC(=O)CCCc1c[nH]c2ccccc12 (centres undefined) |  | inconclusive: 52.6% [activator]
COc1ccc(Cn2c(SCC#N)nc3ccc(N4CCOCC4)cc3c2=O)cc1 | inconclusive [activator, partial curve, poor fit] | 
OC1CCCN(c2c3c(nc4cc(-c5cccc(F)c5)nn24)CCCC3)C1 (centres undefined) | inconclusive [activator, partial curve] | 
Cc1ccc(NC(=O)COc2ccc(CCO)cc2-n2nc3ccccc3n2)cc1C | inconclusive [activator, full curve, poor fit] | 
COc1ccc(-c2cc(C(F)(F)F)nc(NCc3ccco3)n2)cc1OC | inactive | 
COc1ccc(S(=O)(=O)c2cn(CC(=O)Nc3ccccc3)c3ccc(Cl)cc3c2=O)cc1 | inactive | 

Compound | Potency | activation
COC(=O)c1c(-c2ccccc2)csc1N | inactive | 
CCNc1nn2ccccc2c1/C=C(\C#N)C(=O)OCC | inconclusive [activator, full curve, poor fit] | 
O=C(CC(c1ccccc1)c1ccccc1O)N1CCCC1 (centres undefined) | inactive | 
CCOC(=O)C1(C)CCCN(C(=O)c2cc(C)oc2C)C1 (centres undefined) | inconclusive [activator, single point] | 
CCOC(=O)c1ccc(NC(=O)CSc2nnc(-c3cccs3)n2C)cc1 | inactive | 
CCc1nnc(NC(=O)CSc2nnc(COc3ccccc3C)o2)s1 | inactive | 
CN(C)C(CNC(=O)c1ccc2c(c1)S(=O)(=O)c1ccccc1C2=O)c1ccco1 (centres undefined) | inconclusive [activator, partial curve, poor fit] | 
O=[N+]([O-])c1cc(/C=N/O)ccc1Sc1ccccc1 | inconclusive [activator, single point] | 
CCc1cc(=O)oc2c(C)c(OS(C)(=O)=O)ccc12 | inconclusive [activator, single point] | 
CCOc1cc(/C=N/NC(=O)C(C)Sc2ccccn2)ccc1O (centres undefined) | inconclusive [activator, partial curve, poor fit] | 
CCOC(=O)c1c(NC(=O)Cn2cnc([N+](=O)[O-])n2)sc(C)c1C | inconclusive [activator, single point] | 
Cc1nnc(SCC(=O)NC(=O)NCCC(C)C)s1 | inactive | 
CN1CCN(C(=O)CCCOc2ccc(Cl)cc2Cl)CC1 | inconclusive [activator, single point] | 
O=C(Nc1ccccc1Cl)c1cc(C2CCCN(C(=O)CCc3ccccc3)C2)on1 (centres undefined) | inconclusive [activator, partial curve, poor fit] | 
COCCn1c(SCC(=O)Nc2cc(OC)ccc2OC)nc2c(c1=O)SC(C)C2 (centres undefined) | inconclusive [activator, partial curve] | 
CN(C)c1ccc(NC(=S)c2ccccn2)cc1 | inactive | 
CC1(C(=O)OCC(=O)NC(=O)c2ccccc2)CC1(Cl)Cl (centres undefined) | inactive | 
CSc1nc(N)nc(SCC(=O)C(C)(C)C)c1C#N | inconclusive [activator, single point] | 
CCOc1ncccc1C(=O)Nc1ccc2nc(C)sc2c1 | inconclusive [activator, partial curve] | 
CSC1=C(C#N)C(c2ccccc2C)C(C#N)=C(N)N1 (centres undefined) | inconclusive [activator, single point] | 
Cc1ccccc1OCC(=O)Nc1cc(S(=O)(=O)N2CCCCC2)ccc1N1CCN(C)CC1 | inconclusive [activator, partial curve, poor fit] | 
Nc1c(S(=O)(=O)c2cccc(Cl)c2)c2nc3ccccc3nc2n1CCN1CCOCC1 | inconclusive [activator, single point] | 
Nc1c(C(=O)N2CCCC2)sc2nc(-c3ccccc3)ccc12 | inconclusive [activator, partial curve, poor fit] | 

Compound | Potency | activation
COc1cc2c(cc1OC)/C(=C/C(=O)N1CCOCC1)NC(C)(C)C2 | inconclusive [activator, partial curve, poor fit] | 
CCOc1ccc(-c2cn3ccccc3n2)cc1[N+](=O)[O-] | inconclusive [activator, partial curve] | 
COc1cc(OC)c(C(=O)OCC(=O)NC2CCCCCCC2)cc1OC | inconclusive [activator, partial curve, poor fit] | 
O=C1c2cccnc2C(=O)N1Cc1ccc2c(c1)OCO2 | inactive | 
CCOc1ccc(C(=O)OCc2nnc(-c3cccs3)o2)cc1OC | inconclusive [activator, single point] | 
Cc1cc(Cl)c2oc(C(=O)NCCC3CCCCO3)c(C)c2c1 (centres undefined) | inconclusive [activator, single point] | 
COc1ccc(-c2cc(=O)[nH]c(NCc3ccccc3)n2)cc1 | inconclusive [activator, single point] | 
Cc1cccnc1NC(=S)NCCc1ccccc1 | inconclusive [activator, single point] | 
COc1ncccc1C(=O)NC1CCCc2c1cnn2-c1ccc(C)c(C)c1 (centres undefined) | inconclusive [activator, single point] | 
COc1ccc(-c2ccc3ccccc3n2)cc1OC | inconclusive [activator, partial curve, poor fit] | 
Fc1cnc(N2CCOCC2)nc1N1CCc2ccccc21 | inconclusive [activator, partial curve] | 
C=CCSc1nnc2c(n1)-c1cccc3cccc-2c13 | inconclusive [activator, single point] | 
C=CCn1c(SCc2ccc(Cl)cc2)nc2c1c(=O)[nH]c(=O)n2C | inconclusive [activator, full curve, poor fit] | 
COc1ccc(OC)c(NC(=O)Cn2cnc3ccc(S(=O)(=O)N4CCC(C)CC4)cc3c2=O)c1 | inactive | 
O=C(CNCc1ccccc1Cl)Nc1ccc2c(c1)OCCO2 | inactive | 
CCOC(=O)C1(CC2CC2)CCN(C(=O)c2cc(OC)nc3ccccc23)CC1 | inconclusive [activator, partial curve, poor fit] | 
COc1cccc(CN(C)C(=O)c2ccc(COc3ccc(Cl)cc3)cc2)c1OC | inconclusive [activator, partial curve, poor fit] | 
O=Cc1cn(CC(=O)Nc2ccc3c(c2)OCO3)c2ccccc12 | inactive | 
CCNc1nc(N)nc(Oc2ccc(OCCOc3ccc(Cl)cc3Cl)nn2)n1 | inconclusive [activator, single point] | 
CC(=O)/C(N=Nc1nc2c([nH]1)c(=O)n(C)c(=O)n2C)=C(\C)O | active: 12.6 µM | 
CCN(CC(=O)Nc1ccccc1C(=O)OC)S(=O)(=O)c1ccccc1 | inconclusive [activator, partial curve, poor fit] | 
COc1ccc(CCN2CC(C(=O)Nc3cccc(C(C)=O)c3)CC2=O)cc1OC (centres undefined) | inconclusive [activator, single point] | 
COc1ccc(Nc2cc(C)c3ccccc3n2)cc1 | inconclusive [activator, partial curve, poor fit] | 

Source: PubChem BioAssay AID624172 (National Center for Advancing Translational Sciences (NCATS), 2012)
